Assay results published in patent US20060263368A1, “Targeted chimeric molecules for cancer therapy” (Research Development Foundation, priority 2005, published 2006).
Where “and” joins values, the source holds several entries; their conditions need not be identical. Identical values can stand only once.

Columns and labels:
Format in all cases: cell-based, human
[1] = system: AsPc-1; assay: In vitro cytotoxicity and combination study, crystal violet; conditions: 72 hr of exposure
From the text: (§1) If CI near to 1 indicates additive effect (ADD), CI>1 indicates antagonism (ANT), CI<1 indicates synergism (SYN).

[2] = system: Capan-1; assay: as above; conditions: 72 hr of exposure
From the text: as §1

[3] = system: Capan-2; assay: as above; conditions: 72 hr of exposure
From the text: as §1

[4] = system: L3.6pl; assay: as above; conditions: 72 hr of exposure
From the text: as §1

[5] = system: L3.6pl cells; assay: Western blot of signal transduction effects; set-up: key to PARP cleavage / Akt / p-Akt: NE represents no effect; conditions: IC25 doses
Description: Cell lysates ([…]) were fractionated by 8-15% SDS-PAGE and transferred on Immobilon-P nitrocellulose membranes (Schleicher & Schuell Inc., Keene, N.H.). Membranes were blocked for 2 hours in Tris-buffered saline (TBS) containing 3% bovine serum albumin. Monoclonal anti-HER-2/neu Ab (Oncogene Research Products, San Diego, Calif.), rabbit polyclonal anti-HER-1 Ab, rabbit polyclonal anti-TNFR-1 Ab, rabbit polyclonal anti-TNFR-2 Ab, rabbit polyclonal anti-phospho Akt Ab, rabbit polyclonal anti-Akt, and goat anti-β-actin Ab were used for immunoblotting. Goat anti-mouse/goat anti-rabbit or swain anti-goat antibodies conjugated with horseradish peroxidase (Bio-Rad Laboratories, Hercules, Calif.) were used to visualize immunoreactive proteins at a 1:4000 dilution using ECL detection reagent (Amersham Pharmacia Biotech Inc., Piscataway, N.J.).
HER-2/neu over-expression results in activation of different downstream pathways such as the Akt kinase pathway, which leads to cell proliferation and cell survival. […] The activation of Akt kinase was then assessed by Western blot analysis using antibodies to Akt and to phospho-Akt. […]
To determine whether caspase-8 and caspase-3 were activated in L3.6pl cells during 5-FU+scFv23/TNF-induced cell death, the cleavage of caspase-8, caspase-3, and its substrate poly (ADP)-ribose polymerase (PARP) was investigated.

[6] = system: SKBR-3/H; assay: In vitro cytotoxicity, XTT; conditions: 72 hr
Description: (§2) SKBR-3 cells were grown in McCoy's 5A modified medium, supplemented with 10% heat-inactivated fetal bovine serum (FBS), 2 mM L-glutamine, 100 units/ml penicillin and 100 μg/ml streptomycin.
(§3) After 72 hr, 50 μl of XTT labeling mixture (Roche) was added to each well, after which the cells incubated for another 4 hr. The spectrophotometric absorbance was measured at 450 nm using an ELISA reader (Bio-Tek Instruments, Inc., Winooski, Vt.).

[7] = system: SKBR-3/L; assay: In vitro cytotoxicity, XTT; conditions: 72 hr
Description: as §2, §3

[8] = system: HER-2-overexpressing SKBR-3/H cells; assay: Western blot, DNA fragmentation, TUNEL: signal transduction effects; set-up: key to Akt / TRAF-2: NE represents no effect; conditions: 200 nM
Description: Apoptosis was detected by DNA fragmentation and TUNEL assay. […] After 24 hr and 48 hr, cells were washed with PBS, resuspended in a DNA extraction buffer containing 5 mM Tris-HCl, pH 8, 50 mM EDTA, 10 μg/ml RNAse, and 0.25% SDS and then incubated for 1 hr at 37° C. To remove protein, resuspended cell lysates were treated with 100 μg/ml proteinase K for 3 hr at 50° C. DNA was extracted using phenol and chloroform followed by ethanol precipitation. The genomic DNA was resuspended in Tris-EDTA (pH 8) and was fractionated by electrophoresis on a 1% agarose gel containing ethidium bromide.
The cells were washed with PBS, permeabilized (0.1% Triton X-100, 0.1% sodium citrate), and then fixed in 4% paraformaldehyde. Fixed cells were stained with in situ cell death detection kit (Roche). Cells undergoing apoptosis were identified by fluorescence microscopy.
After treatment, cells were washed twice with phosphate buffered saline (PBS) and lysed on ice for 20 min in 0.3 ml of lysis buffer (10 mM Tris-HCl, pH 8, 60 mM KCl, 1 mM EDTA, 1 mM DTT, 0.2% NP-40). Cell lysates (50 μg) were fractionated by 8-15% SDS-PAGE and electrophoretically transferred to Immobilon-P nitrocellulose membranes (Schleicher & Schuell Inc., Keene, N.H.). Membranes were blocked 2 hrs in Tris-buffered saline (TBS) containing 3% bovine serum albumin and then probed with various antibodies (monoclonal anti-HER-2/neu Ab, rabbit polyclonal anti-TNFR1 Ab, rabbit polyclonal anti-TNFR2 Ab, rabbit polyclonal anti-caspase-8 Ab, monoclonal anti-caspase-3 Ab, monoclonal anti-PARP Ab, rabbit polyclonal anti-TRADD Ab, rabbit polyclonal anti-TRAF2 Ab, rabbit polyclonal anti-IκB-α Ab, rabbit polyclonal anti-phospho Akt Ab, and rabbit polyclonal anti-Akt Ab). Goat anti-mouse/goat anti-rabbit or swain anti-goat antibodies conjugated with horseradish peroxidase (Bio-Rad Laboratories, Hercules, Calif.) were used to visualize immunoreactive proteins at a 1:4000 dilution using ECL detection reagent (Amersham Pharmacia Biotech Inc., Piscataway, N.J.).

[9] = system: SKBR-3-LP cells; assay: Western blot of TNF receptor expression
Description: After treatment, cells were washed twice with phosphate buffered saline (PBS) and lysed on ice for 20 min in 0.3 ml of lysis buffer (10 mM Tris-HCl, pH 8, 60 mM KCl, 1 mM EDTA, 1 mM DTT, 0.2% NP-40). Cell lysates (50 μg) were fractionated by 8-15% SDS-PAGE and electrophoretically transferred to Immobilon-P nitrocellulose membranes (Schleicher & Schuell Inc., Keene, N.H.). […] Goat anti-mouse/goat anti-rabbit or swain anti-goat antibodies conjugated with horseradish peroxidase (Bio-Rad Laboratories, Hercules, Calif.) were used to visualize immunoreactive proteins at a 1:4000 dilution using ECL detection reagent (Amersham Pharmacia Biotech Inc., Piscataway, N.J.).

B1: scFv23/TNF: immunocytokine: TNF tethered to the single chain antibody scFv23 that recognizes the cell-surface domain of HER-2/neu (protein)
scFv: DVQLTQSPAILSASPGEKVTMTCRATPSVSYMHWYQQKPGSSPKPWIYTTSNLASGVPARFSGGGSGTSYSLTVSRVEAEDAATYYCQQWSRSPPTFGGGSKLEIKGSTSGSGKSSEGKGVQLQESGPEVVKPGGSMKISCKTSGYSFTGHTMNWVKQSHGKNLEWIGLINPYNGDTNYNQKFKGKATFTVDKSSSTAYMELLSLTSEDSAVYYCARRVTDWYFDVWGAGTTVTVSSGGGGS[letters of about 150 residues not shown]
IC50 [1]: 500 nM
IC50 [2]: 700 nM
IC50 [3]: 400 nM
IC50 [4]: 150 nM
Akt [5]: NE
Bcl-2 [5]: ↓
inhibition of Bcl-2 expression levels [5]: 44%
p-Akt [5]: NE
Caspase-3 cleavage ([5]; 48 hr): ↑
Caspase-8 cleavage ([5]; 48 hr): ↑
PARP cleavage ([5]; 48 hr): NE
IC50 [6]: 150 nM
IC50 [7]: 4 nM
Akt [8]: NE
Caspase-3 cleavage [8]: ↑
Caspase-8 cleavage [8]: ↑
DNA fragmentation [8]: ↑
IκB-α [8]: ↓
PARP cleavage [8]: ↑
TRADD [8]: ↓
TRAF-2 [8]: NE
p-Akt [8]: ↓
TNF-R1 expression, increase compared to controls [9]: 5 fold and 7.3 fold
